According to PubChem BioAssay AID686979 (National Center for Advancing Translational Sciences (NCATS), 2013):
“And” between values parts separate entries of the source, which are not always exact repeats. Equal entries are not always repeated. Hit rate of the full screen: of about 420,000 compounds, about 50,000 (12%) were called active. The shares of active, inactive and inconclusive entries below differ from those in the screen. The call rests on the fitted dose curve; in most records, active means well fitted inhibition curve with a large enough effect; inconclusive means small, poorly fitted or top-dose-only effect; inactive means flat fitted curve, though single readings scatter. Where the call is inconclusive, the potency comes from a doubtful curve fit.

Experiment: qHTS for Inhibitors of human tyrosyl-DNA phosphodiesterase 1 (TDP1): qHTS in cells in presence of CPT; further: nearly all actives have a fitted effect of over 55% in size
Conditions: chicken DT40 Tdp1-/-;hTDP1 cells + 20 nM CPT, ATP luminescence, 48 h; activity change, negative = growth inhibition: at 46.2 µM (top of the series) unless noted
Method in brief: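 Chicken DT40 Tdp1-/- cells complemented with human TDP1, 400 cells/well, exposed to compounds plus 20 nM camptothecin for at least 48 h at 37 C; viability read as ATP content by CellTiter-Glo luminescence.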
On the % scale 0 is the no-effect control and ±100 the full control effect; potency means the concentration at half of the fitted maximal effect; tags describe the fitted curve by direction and shape.

| Compound | Potency | activity change, negative = growth inhibition |
| --- | --- | --- |
| O[C@@H]1CCCN2C[C@@H](O)[C@@H](O)C12 (some centres not stated) | inactive | – |
| COc1ccc(CN2C(=O)NC(=O)/C(=C/c3ccoc3)C2=O)cc1 | inconclusive: 29.1 µM [inhibitor, single point] | – |
| COc1ccc(NS(=O)(=O)c2ccc(OCC(=O)N3CCN(C)CC3)cc2)cc1Cl | inactive | – |
| COc1ccc(NC(=O)CN2C(=O)C(C)N=C(c3ccccc3F)c3cc(Cl)ccc32)c(OC)c1 (configuration not stated) | inconclusive: 29.1 µM [inhibitor, single point] | – |
| Cc1ccc(C)c(OCC(=O)N2CCCN(C)CC2)c1 | inactive | – |
| COc1ccc(C[C@@H]2c3cc(O)c(OC)cc3CCN2C)cc1O | inactive | – |
| CCCCOc1ccc(CN2C(=O)C(=O)c3cc(C)ccc32)cc1OC | active: 1.03 µM | – |
| CCCNC(=O)c1c(N)n(CC2CCCO2)c2nc3ccccc3nc12 (configuration not stated) | inconclusive: 29.1 µM [inhibitor, single point] | – |
| CCCCCn1c(Sc2ccccc2)nc2c1c(=O)[nH]c(=O)n2C | inconclusive: 16.4 µM [inhibitor, single point] | – |
| CCCCCSc1cc(OC)c(CCNC)cc1OC | active: 16.4 µM | – |
| O=C1Nc2ccc(Cl)cc2C(c2ccccc2)=NC1O (configuration not stated) | inconclusive: 29.9 µM [inhibitor, single point] and inconclusive: 48.6 µM [inhibitor, single point] | – |
| O=P(c1ccccc1)(c1ccccc1)N(c1ccccc1)c1ccccc1 | active: 2.91 µM | – |
| CCC(C)C1NC(=O)C(C(C)=O)=C1O (configuration not stated) | active: 16.4 µM | – |
| O=C1C(=Cc2cn(-c3ccccc3)nc2-c2ccc(OCc3ccc(Cl)cc3)cc2)SC(=S)N1CCS(=O)(=O)O | inconclusive: 29.1 µM [inhibitor, single point] | – |
| NC(=O)NNc1ccccc1 | inconclusive: 0.841 µM [inhibitor, full curve, poor fit] | – |
| CCCn1cc(S(=O)(=O)c2ccc(OC)cc2)c(=O)c2cc(F)c(N3CCCCCC3)cc21 | inconclusive: 18.4 µM [inhibitor, single point] | – |
| CC(C)Oc1ccc(CNC(=O)C2CCCN(S(=O)(=O)c3ccc4c(ccn4C)c3)C2)cc1 (configuration not stated) | active: 20.6 µM | – |
| O=C(C[N+]12CCN(CC1)CC2)NCCc1ccc(Cl)cc1Cl | inactive | – |
| CN[C@H](C)[C@H](O)c1ccccc1 | inactive | – |
| c1cc2c(cc1[C@H]1OC[C@H]3[C@@H]1CO[C@H]3c1ccc3c(c1)OCO3)OCO2 | – | inconclusive: -31.5% [inhibitor] |
| Fc1cccc(F)c1CN1CCN(c2ccc(Cl)cc2)CC1 | inactive | – |
| COc1cc2c(cc1OC)C(c1c(O)n(CCc3ccccc3)c(=S)[nH]c1=O)NCC2 (configuration not stated) | inactive | – |
